The record followed here is patent publication US20200377551A1, “PEPTIDE CONSTRUCTS AND METHODS FOR ENHANCEMENT OF INTERFERON PRODUCTION” (Wake Forest University Health Sciences, priority 2019, published 2020).

The target in test [1] is T1, MAVS (Homo sapiens, UniProt Q7Z434). Put plainly: In vitro MAVS aggregation assay (SDD-AGE). Particulars: GST-RIG-I(N), K63-Ub4, mitochondria preincubated with lactate (5 mM, 10 mM) or pyruvate.
Test [2] concerns the target T1, MAVS. Put plainly: Lactate-MAVS binding (biotin-lactate pulldown, immunoprecipitation, in vitro binding).
Test [3] is classed as binding.
Test [4] deals with HeLa cells. Put plainly: Immunofluorescence cellular localization of peptides in HeLa cells. Particulars: HeLa cells pretreated with peptides; MAVS or Tat antibody staining; data not shown. On the procedure:
Immunofluorescent Confocal Microscopy. Cells were fixed with 3% paraformaldehyde for 20 min at 25° C. and permeabilized for 20 min with 0.5% Tween-20. Samples were blocked with 2% goat serum in phosphate-buffered saline (PBS) for 30 min. Anti-MAVS (1:500, Santa Cruz) and anti-TAT (1:500, Abcam) antibodies were used to detect the MAVS protein and TM peptides, respectively. Staining was visualized with secondary antibodies and the images were captured with a digital camera under a confocal microscope.
This property has been used to deliver large molecules or even small particles into the cells for testing their biological functions by overcoming the lipophilic barrier of the cell membranes. Cellular localization of the control and TM peptides was assessed using the immunofluorescence assay in which HeLa cells were pretreated with the peptides and then stained with MAVS or Tat antibody and then imaged by confocal microscopy. […] The effect of TM peptide on RLR induced type-I IFN production was then determined.

T1 sequence (Q7Z434 2-540 limits assumed): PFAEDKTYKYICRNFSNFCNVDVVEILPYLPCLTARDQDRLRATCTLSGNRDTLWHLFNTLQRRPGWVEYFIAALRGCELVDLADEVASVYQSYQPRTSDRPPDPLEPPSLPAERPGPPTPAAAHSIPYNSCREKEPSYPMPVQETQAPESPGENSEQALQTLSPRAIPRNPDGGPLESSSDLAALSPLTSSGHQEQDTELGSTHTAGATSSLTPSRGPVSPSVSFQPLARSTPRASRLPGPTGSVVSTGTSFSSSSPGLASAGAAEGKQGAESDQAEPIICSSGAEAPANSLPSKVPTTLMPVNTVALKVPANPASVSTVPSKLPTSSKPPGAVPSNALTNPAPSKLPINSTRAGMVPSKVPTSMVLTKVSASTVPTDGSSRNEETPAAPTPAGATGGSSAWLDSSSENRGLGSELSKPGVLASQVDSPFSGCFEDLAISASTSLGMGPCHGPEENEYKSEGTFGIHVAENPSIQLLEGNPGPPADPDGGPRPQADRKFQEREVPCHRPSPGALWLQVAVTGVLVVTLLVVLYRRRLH

As to `CC(O)C(=O)O` (stereo not drawn) [lactate], the “MAVS aggregation induced by activated RIG-I” value in test [1] is reported as “impaired MAVS aggregation in a dose dependent manner”. For the same compound, in test [2] (in vitro), the “binding of MAVS in in vitro binding assays” value is “bind to lactate in a dose-dependent manner”.

Turning to “TM peptide: peptide containing MAVS TM domain (514-535aa) with a trans-activator of transcription (TAT) tag placed in its N terminal region (SEQ ID NO:24) (YGRKKRRQRRRAGALWLQVAVTGVLVVTLLVVLY)”, the “lactate pulled down by peptide” value in test [3] (immunoprecipitation with Tat antibody, different doses of peptide) is “specifically pulled down”. For the same compound, the binding to biotin-lactate entry in test [3] (mass spectrometry of in vitro biotin-lactate pulldown products, data not shown) is “could bind to biotin-lactate”. Also, the entry into cells entry in test [4] is recorded as “found to enter into cells”. For the same compound, the “binding of lactate to MAVS” value in test [2] (in vitro binding assay, biotin-labeled lactate, MAVS protein translated in vitro, with control or TM peptide) was “markedly interrupted”.
